Results as given in PMC6451091.
The other results are listed elsewhere or left out. For some of these results: At the low end of the ranking, values are background and their order means little. For some of these results: Measured with an extract: partners may take part in the binding.

What was measured:
Conditions in all cases: 20 mM HEPES pH 7.9, 100 mM NaCl, 1 mM DTT, 0.2 mg/mL BSA, 0.02% Triton X-100, 2% milk, 0.4 mg/mL salmon testes DNA; 1 h; temperature not stated; high values mean tight binding; double strand, one strand shown; sequences stand for … in GCCTAGCAC…GTGCTAGGTCTTGATTCGCTTGACGCTGCTG
PU.1 (IVT) = PU.1 (IVT) (UniProt P17947); assay: protein-binding microarray (PBM)
[1] = target: T1, FLI1 (endogenous, THP-1 nuclear extract) (UniProt Q01543); assay: nuclear extract protein-binding microarray (nextPBM)
T1 sequence: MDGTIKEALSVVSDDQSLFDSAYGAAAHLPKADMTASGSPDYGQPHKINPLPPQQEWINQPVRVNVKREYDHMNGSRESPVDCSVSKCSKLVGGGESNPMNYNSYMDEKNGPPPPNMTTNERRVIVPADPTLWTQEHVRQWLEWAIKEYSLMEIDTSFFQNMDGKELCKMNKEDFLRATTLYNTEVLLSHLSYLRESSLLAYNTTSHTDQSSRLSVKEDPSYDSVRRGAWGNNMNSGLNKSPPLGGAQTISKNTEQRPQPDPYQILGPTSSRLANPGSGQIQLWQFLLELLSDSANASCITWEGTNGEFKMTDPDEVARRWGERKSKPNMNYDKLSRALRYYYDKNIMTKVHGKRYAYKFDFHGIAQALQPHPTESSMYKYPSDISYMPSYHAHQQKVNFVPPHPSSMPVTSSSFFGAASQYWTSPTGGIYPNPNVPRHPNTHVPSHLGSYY

[2] = test system: PU.1 (endogenous, THP-1 nuclear extract) + IRF8 (endogenous, THP-1 nuclear extract); assay: as above
[3] = target: PU.1 (endogenous, THP-1 nuclear extract) (UniProt P17947); assay: as above

| Sequence | binding signal (PU.1 (IVT)) [z-score] | binding signal [1] [z-score] | binding signal [2] [z-score] | binding signal [3] [z-score] |
| --- | --- | --- | --- | --- |
| AGAGAGGAGAAGTGAAACCT | 1.5 | 0.611 | 26.8 |  |
| CGCAAGGGGAACTGAAACTC | 2.4 | 1.53 | 20.3 |  |
| TTGAGATGTGAGTTGGATTC | -0.394 | -0.76 | 0.177 | -0.364 |
| AGATTGTGGAAGTGAAAGTA | 2.72 | 1.73 | 30.7 |  |
| TTCCCGTGACTTAGACTCAA | 3.38 | 2.71 | -0.78 | 2.71 |
| TGAAACAGTAAGTGAAACCA | 0.111 | 0.0674 | 17.1 |  |
| TTTCAGAGGAACTGAAAGTT | 1.5 | 0.845 | 3.73 |  |
| CTCATGCTCCAGTTGAAGTT | 0.331 | -0.506 | -0.505 | -0.128 |
| CTGCCAGGGAAGTGAAATCA | 1.1 | 0.527 | 0.142 |  |
| TGAGAGCAGAAGTGAAACCT | 1.66 | 0.694 | 28.5 |  |
| GCAAAGGGGAAATGAAACTT | 3.31 | 2.54 | 25.3 |  |
| GTTAAAGGGAAGTGAAACTA | 4.13 | 3.15 | 68.8 |  |
| GTTTTGAGGAAGTGAAACTA | 6.78 | 4.24 | 79.5 |  |
| GTGCAAAGGAAGTGAAACTA | 1.56 | 2.72 | 52.9 |  |
| TGGCTGAGGAAGTGAAACTA | 3.15 | 3.27 | 61 |  |
| GTGGCAGGGAACTGAAACTC | 0.317 | -0.198 | 13.2 |  |
| AAAATGAGGAACTGAAACTA | 6.56 | 3.45 | 70.8 |  |
| TAAAAAAGGAAATGAAAGTA | 2.77 | 2.51 | 18.5 |  |
| TGAGAGGAGTAGTGAAACCT | -0.488 | -0.501 | 10.2 |  |

| Sequence | binding signal (PU.1 (IVT)) [z-score] | binding signal [1] [z-score] | binding signal [2] [z-score] | binding signal [3] [z-score] |
| --- | --- | --- | --- | --- |
| GATAAGAGGAAGTGAAAGCT | 6.94 | 3.87 | 20.7 |  |
| CTGGCAAGGAACTGAAACTC | 0.424 | 0.212 | 11.2 |  |
| TTTCAAGATACCAATGTGAA | -0.0469 | 0.0495 | -0.415 | 0.0293 |
| AAAAAAAGGACATGAAAGTA | -0.0433 | -0.0186 | 1.98 |  |
| TGGAACAGGAAGTGAAACCA | 5.22 | 5.64 | 74 |  |
| TAAAGGAGGCACTGAAACCA | -0.394 | -0.548 | 5.28 |  |
| GATAAGAGGAACTGAAAGCC | 4.49 | 1.4 | 3.69 |  |
| GAGGGGAGGAACTGAAACTG | 1.11 | 0.994 | 19.8 |  |
| CTGCCAGGAAAGTGAAAGCA | -0.646 | 0.746 | 8.37 |  |
| TGAAAGAGGAACCGAAACTC | 4.2 | 2.69 | 83.3 |  |
| TGAGGGGAGAAGTGAAACCT | 1.11 | 0.143 | 29.2 |  |
| AAAAAAAGTAAATGAAAGTA | -0.0555 | -0.386 | 3.09 |  |
| TGAGAGGAGATGTGAAACCT | -0.334 | 0.123 | 10.8 |  |
| TGAAACGGGAAGTGAAACCA | 6.35 | 4.38 | 65.5 |  |
| CTGCAAGGGAAGTGAAAGCA | 2.15 | 1.89 | 4.39 |  |
| CTGCCAGGGAAGTTAAAGCA | 1.25 | 0.175 | -0.862 |  |
| AGGTAGAGGAAGTGAAACTG | 3.76 | 3.74 | 54.5 |  |
| GATAAGAGGATCTGAAAGCT | 0.169 | 0.0218 | 0.435 |  |
| AAAAAGAGGAACTGAAACTA | 7.78 | 4.13 | 71.9 |  |

| Sequence | binding signal (PU.1 (IVT)) [z-score] | binding signal [1] [z-score] | binding signal [2] [z-score] | binding signal [3] [z-score] |
| --- | --- | --- | --- | --- |
| TCAACATGGAAGTGAAAGTC | 1.82 | 1.23 | 7.55 |  |
| TGGCAGAGGAAGGGAAACTA | 1.45 | 1.34 | 2.28 |  |
| CTGCCAGGGACGTGAAAGCA | -0.111 | -0.552 | -0.0127 |  |
| TGGCAGAGGAAGTGACACTA | 3.46 | 2.51 | -0.269 |  |
| TGAAACAGGAAGTGAGACCA | 6.68 | 5.49 | 4.8 |  |
| AGAAAGGGGAAGAGAAACTG | 4.81 | 2.18 | 6.66 |  |
| GAAAAGGGGAAGAGAAACTT | 4.8 | 1.68 | 6.55 |  |
| AAAATCAGGAACTGAAACTA | 3.95 | 2.51 | 47.9 |  |
| TGAGATGAGAAGTGAAACCT | 0.545 | 0.12 | 26 |  |
| TGGCAGAGGAGGTGAAACTA | -0.448 | 0.256 | 9.32 |  |
| GTGGTAGGGAAGTGAAACTG | 3.26 | 2.22 | 46.7 |  |
| ATTAAGGGGAAGTGAAACAT | 5.15 | 2.95 | 11.4 |  |
| TCAAGGAGGAACTGAAACCA | 2.91 | 1.63 | 40.3 |  |
| CTGCCAGGGTAGTGAAAGCA | -0.469 | -0.794 | 2.34 |  |
| GGAAAGAGGAAGGGAAACTG | 3.89 | 2.65 | 9.16 |  |
| TGACAGAGGAAGTGAAACTA | 3.77 | 3.41 | 63.7 |  |
| TGGCATAGGAAGTGAAACTA | 1.89 | 2.88 | 61 |  |
| TGAAACAGGAAGTGGAACCA | 6.08 | 5.26 | 3.76 |  |
| TGTTTGAGGAACTGAAACTG | 3.75 | 2.36 | 42.9 |  |
